Laboratory results reported in PubChem BioAssay AID504832 (National Center for Advancing Translational Sciences (NCATS), 2011).
Among all 310,000 compounds or so, about 18,000 (5.8%) were called active. The inconclusive results got no clear call from the source; some entries with a clear call stand among them for comparison. Calls come from the whole dose curve; as a rule, active = well fitted inhibition curve with a large enough effect; inconclusive = small, poorly fitted or top-dose-only effect, or another doubt; inactive = no such curve, though single readings can be large or run the other way. Potencies of inconclusive entries are left out as doubtful fits.

Assay: Primary qHTS for delayed death inhibitors of the malarial parasite plastid, 48 hour incubation
Settings: P. falciparum luciferase growth in erythrocytes; series mostly up to 28.7 µM; activity change, negative = inhibition: at the top concentration
Procedure, shortened: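 Erythrocytes infected with P. falciparum carrying an integrated firefly luciferase reporter (2% hematocrit, 0.1% parasitemia final) were exposed to compounds in RPMI 1640 with 0.5% Albumax at 37 C, 5% CO2. Growth inhibition was scored as reduced luminescence.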
% is set by controls: 0 for no effect and ±100 for the full control effect; potency is the fitted concentration of half-maximal effect; tags give direction and shape of the fitted curve.

Row | SMILES | Potency | activity change, negative = inhibition
1 | CCc1ccc(NC(=O)C(=O)NCC2CCCN2S(=O)(=O)c2cccs2)cc1 (stereo not drawn) | inconclusive [inhibitor, single point] | 
2 | Cc1ccc(Sc2nnc(Cc3ccccc3)c3ccccc23)cc1 | inconclusive [inhibitor, single point] | 
3 | CC(NC(=O)c1cccc(OC2CCN(C3CCN(C)CC3)CC2)c1)c1ccccc1 (stereo not drawn) | inconclusive [inhibitor, single point] | 
4 | CCOc1ccc(S(=O)(=O)NCCC(=O)NCC2COc3ccccc3O2)cc1 (stereo not drawn) | inconclusive [inhibitor, single point] | 
5 | COc1ccc2[nH]c3c(c2c1)CCN1C(=O)N([C@@H](C)C(=O)NC2CCCC2)C(=O)[C@]31C | inconclusive [inhibitor, full curve, poor fit] | 
6 | C/C=C/C(=O)Nc1ccc(N2CCN(c3ccc(C(F)(F)F)cn3)CC2)nc1 | inconclusive [inhibitor, partial curve, poor fit] | 
7 | COc1ccc(C(=O)COC(=O)c2ccccc2C(=O)N(C)c2ccccc2)c(OC)c1 | inconclusive [inhibitor, single point] | 
8 | CCCNc1c(NS(=O)(=O)c2c(F)c(F)c(F)c(F)c2F)c(=O)oc2ccccc12 |  | inactive: -6.5%
9 | CCOc1ccccc1NC(=O)C1CCN(C(=O)Cc2ccccc2)CC1 | inconclusive [inhibitor, partial curve, poor fit] | 
10 | COc1ccc(-n2c(C)cc(-c3csc(N)n3)c2C)cc1 | active: 13.1 µM | 
11 | CC(Sc1nnc2ccccn12)C(N)=O (stereo not drawn) | inconclusive [inhibitor, full curve, poor fit] | 
12 | CCOc1ccccc1C1CC(c2ccc(Br)cc2)Nc2nc(N)nn21 (stereo not drawn) | inconclusive [inhibitor, single point] | 
13 | Cc1ccccc1C(=O)N/N=C/c1cccc2ccccc12 | inconclusive [inhibitor, single point] | 
14 | CC(C)c1ccc(NC(=O)CSc2nc3ccccc3nc2N2CCCC2)cc1 | inconclusive [inhibitor, partial curve, poor fit] | 
15 | CC(C)C(=O)N1c2ccccc2NC2=C(C(=O)CCC2)C1c1ccc(N(C)C)cc1 (stereo not drawn) | inconclusive [inhibitor, partial curve, poor fit] | 
16 | COc1ccc2nc(SCC(=O)Nc3ccc(S(=O)(=O)N4CCCC4)cc3)c(C#N)cc2c1 | active: 3.29 µM | 
17 | CCOC(=O)C1=C(CN2CCCCCC2)NC(=O)NC1c1ccc2c(c1)OCO2 (stereo not drawn) | inconclusive [inhibitor, partial curve, poor fit] | 
18 | Cc1cccc(CN2CCCC(C(=O)c3ccc4c(c3)OCO4)C2)n1 (stereo not drawn) | inconclusive [inhibitor, full curve] | 
19 | CCc1ccc(/C=C2/Sc3ccccc3N(CC(=O)NCCCN3CCOCC3)C2=O)cc1 | inconclusive [inhibitor, partial curve] | 
20 | O=C(CSc1ncnc2nc[nH]c12)c1ccc2ccccc2c1 |  | inactive: 22%
21 | COc1ccc2nc(SCC(=O)NC3CCCCC3C)[nH]c2c1 (stereo not drawn) | inconclusive [inhibitor, partial curve, poor fit] | 
22 | CN(CCOc1ccccc1)C(=O)C1CCN(C(=O)c2ccc(F)cc2)CC1 | inconclusive [inhibitor, single point] | 
23 | CC(C)(C)c1ccc(C(=O)NC(=S)N2CCCCCC2)cc1 | inconclusive [inhibitor, partial curve, poor fit] | 

Row | SMILES | Potency | activity change, negative = inhibition
24 | COC(=O)c1ccc(OC(=O)CN2C(=O)c3ccccc3C2=O)cc1 |  | inactive: 0%
25 | COc1ccc2ccccc2c1C1CC(=O)N2CN(C)CSC2=C1C#N (stereo not drawn) |  | inactive: 0%
26 | CCN1CCN(c2nc(N(C)c3ccccc3)nc(N)c2[N+](=O)[O-])CC1 |  | inactive: -10.6%
27 | CCOc1ccccc1NC(=O)CN1CCC(NC(=O)Nc2ccccc2)CC1 | inconclusive [inhibitor, partial curve, poor fit] | 
28 | COC(=O)c1ccc(Nc2cc(C)nc3ccc(C)cc23)cc1 | inconclusive [inhibitor, single point] | 
29 | O=C(CN1CCN(c2ccc(O)cc2)CC1)N1CCc2ccccc21 |  | inactive: -20.3%
30 | CCOC(=O)c1oc2c(CN3CCN(CCO)CC3)c(O)c(CC)cc2c(=O)c1-c1nc2ccccc2s1 | inconclusive [inhibitor, full curve] | 
31 | COc1ccc(CCC(=O)N(c2nnc(-c3cccnc3)s2)C(C)C)cc1 | inconclusive [inhibitor, single point] | 
32 | CCN(CC)CCNC(=O)c1ccc(NC(=O)c2cc(-c3ccncc3)nc3ccccc23)cc1 | active: 0.828 µM | 
33 | COc1ccccc1CN(C)C(=O)C(NC(=O)Cc1cccc2ccccc12)C(C)C (stereo not drawn) | inconclusive [inhibitor, single point] | 
34 | O=C(Nc1ccc(C2SCCS2)cc1)c1ccccc1 |  | inactive: 144%
35 | COc1ccc(OC)c(NC(=O)N[C@H](Cc2ccccc2)C(=O)NN)c1 | inconclusive [inhibitor, single point] | 
36 | CCCCN(C(=O)c1cc(Cl)nc2ccccc12)c1c(N)n(CCCC)c(=O)[nH]c1=O | inconclusive [inhibitor, single point] | 
37 | COCCCN1CC(=O)N2C(c3cccc(OC)c3OC)c3[nH]c4ccccc4c3C[C@H]2C1=O (stereo partly drawn) | active: 9.28 µM | 
38 | CCOC(=O)CN(C(=O)CSc1nnc(CNc2ccc(F)cc2)n1C)c1ccccc1 | inconclusive [inhibitor, partial curve] | 
39 | O=c1cc(O)c2sc(Nc3ccc(F)cc3)nc2[nH]1 | inconclusive [inhibitor, single point] | 
40 | CCC(C)(C)NC(=O)CN(C(=O)c1snc(C(N)=O)c1N)c1ccc2c(c1)OCO2 | inconclusive [inhibitor, single point] | 
41 | Oc1cccc(C(=S)N2CCCCC2)c1 |  | inactive: 38.6%
42 | CC1CCC2C(=O)N(c3ccc(NC4CCN(Cc5ccccc5)CC4)c([N+](=O)[O-])c3)C(=O)C2C1 (stereo not drawn) | active: 11.7 µM | 
43 | CCCCC(c1nnnn1CCOC)N1CCN(Cc2ccccc2)CC1 (stereo not drawn) | inconclusive [inhibitor, single point] | 
44 | COc1ccccc1NC(=O)Nc1nc(CC(=O)Nc2cccc(F)c2)cs1 | active: 4.15 µM | 
45 | O=C1NC(Cc2c[nH]c3ccccc23)C(=O)N1Cc1ccc(CN2C(=O)NC(Cc3c[nH]c4ccccc34)C2=O)cc1 (stereo not drawn) | active: 5.22 µM | 
46 | Oc1c(Br)cc(Br)cc1/C=N/N1CCN(Cc2ccccc2)CC1 |  | inactive: 11.3%

Row | SMILES | Potency | activity change, negative = inhibition
47 | C#CCOCCOCCOCCNc1nc(N2CCOCC2)nc(N2CCN(C(=O)[C@H]([C@@H](C)CC)n3cc(CCCN=C(N)N)nn3)CC2)n1 |  | inactive: 7.39%
48 | O=C(NCCOc1cccc2cccnc12)c1cccs1 |  | inactive: 11%
49 | Cn1cc(/C=N/n2cnc3scc(-c4ccccc4)c3c2=O)c2ccccc21 |  | inactive: -11.3%
50 | CCOc1cc(/C=C2\N=C3CCCCCN3C2=O)ccc1O |  | inactive: 94.3%
51 | CCC(=O)OCC(=O)N=c1sccn1Cc1ccccc1Cl | inconclusive [inhibitor, partial curve] | 
52 | CCCOc1ccccc1C(=O)N(Cc1ccco1)C1CCS(=O)(=O)C1 (stereo not drawn) | inconclusive [inhibitor, partial curve] | 
53 | COc1ccc(NC(=O)Cc2c(SC)c3ccccc3n2Cc2ccccc2)cc1 | active: 11.7 µM | 
54 | Cc1ccc(CN(C(=O)COc2ccc(C)c(C)c2)C2CCS(=O)(=O)C2)o1 (stereo not drawn) |  | inactive: 2.05%
55 | CC(=O)Nc1sc(N/N=C\c2ccco2)nc1-c1cccs1 | inconclusive [inhibitor, single point] | 
56 | CCOC(=O)Cc1csc(NC(=O)C(C)c2ccc([N+](=O)[O-])cc2)n1 (stereo not drawn) | active: 9.28 µM | 
57 | Cn1c(=O)[nH]c(=O)c2c1nc(N1CCCCC1)n2CCCSc1nnnn1-c1ccccc1 | inconclusive [inhibitor, single point] | 
58 | O=C(CP(=O)(c1ccccc1)c1ccccc1)Nc1cccc(CP(=O)(c2ccccc2)c2ccccc2)c1 | inconclusive [inhibitor, full curve, poor fit] | 
59 | CC(C)CC(=O)NC(NC(=S)Nc1ccccc1)C(Cl)(Cl)Cl (stereo not drawn) | active: 13.1 µM | 
60 | COc1ccccc1C(=O)COC(=O)CSC(C)C(=O)Nc1cc(C)on1 (stereo not drawn) |  | inactive: 44.3%
61 | Cc1cccc(NC(=O)CSc2nc3c([nH]c4ccccc43)c(=O)n2C)c1 |  | inactive: 19.3%
62 | CC(C)(C)c1ccc(Oc2cccc(C3CC(=O)C(C4NCCc5ccccc54)C(=O)C3n3cncn3)c2)cc1 (stereo not drawn) | active: 1.17 µM | 
63 | Cc1c(CCOC(=O)c2cc([N+](=O)[O-])cc([N+](=O)[O-])c2)sc[n+]1CC(=O)c1ccccc1 | inconclusive [inhibitor, single point] | 
64 | O=C(NC(Nc1cc(C(F)(F)F)ccc1Cl)C(=O)c1ccccc1)c1ccccc1 (stereo not drawn) | inconclusive [inhibitor, partial curve, poor fit] | 
65 | Cc1nc(C)c(C(=O)OCC(=O)Nc2ccccc2SCC#N)s1 |  | inactive: -18.3%
66 | CCOc1cccc(C(=O)NC(=S)Nc2ccc(N3CCN(CC)CC3)cc2)c1 | inconclusive [inhibitor, single point] | 
67 | Cc1nn(C)c(Oc2cccc(Cl)c2)c1C(=O)Nc1ccc(F)cc1 | inconclusive [inhibitor, partial curve, poor fit] | 
68 | CCC(=O)O[C@@]1(C(=O)SCF)[C@@H](C)C[C@H]2[C@@H]3C[C@@H](F)C4=CC(=O)C=C[C@@]4(C)[C@]3(F)[C@@H](O)C[C@]21C | active: 5.73 µM | 
